Among all 45,000 compounds or so, about 65 (0.1%) were called active. The call rests on the fitted dose curve; in most records, active means well fitted activation curve with a large enough effect; inconclusive means small, poorly fitted or top-dose-only effect; inactive means no such curve, though single readings can be large or run the other way. The list shows a part of the results.
biological target: Galactocerebrosidase (Homo sapiens) (UniProt P54803); assay: A Novel Cell-Based Assay to Identify Small Molecules for B -Galactocerebrosidase; conditions: 145M-Twi-hGALC-G270D cells (Twitcher mouse brain line with human GALC G270D), HMU-beta-Gal fluorescence, 48 h; series mostly up to 57.5 µM; activation: at the top concentration; further: 0% is about no effect; nearly all actives have a fitted effect of over 65% in size
Chain of UniProt P54803 (P54803 whole entry, looked up): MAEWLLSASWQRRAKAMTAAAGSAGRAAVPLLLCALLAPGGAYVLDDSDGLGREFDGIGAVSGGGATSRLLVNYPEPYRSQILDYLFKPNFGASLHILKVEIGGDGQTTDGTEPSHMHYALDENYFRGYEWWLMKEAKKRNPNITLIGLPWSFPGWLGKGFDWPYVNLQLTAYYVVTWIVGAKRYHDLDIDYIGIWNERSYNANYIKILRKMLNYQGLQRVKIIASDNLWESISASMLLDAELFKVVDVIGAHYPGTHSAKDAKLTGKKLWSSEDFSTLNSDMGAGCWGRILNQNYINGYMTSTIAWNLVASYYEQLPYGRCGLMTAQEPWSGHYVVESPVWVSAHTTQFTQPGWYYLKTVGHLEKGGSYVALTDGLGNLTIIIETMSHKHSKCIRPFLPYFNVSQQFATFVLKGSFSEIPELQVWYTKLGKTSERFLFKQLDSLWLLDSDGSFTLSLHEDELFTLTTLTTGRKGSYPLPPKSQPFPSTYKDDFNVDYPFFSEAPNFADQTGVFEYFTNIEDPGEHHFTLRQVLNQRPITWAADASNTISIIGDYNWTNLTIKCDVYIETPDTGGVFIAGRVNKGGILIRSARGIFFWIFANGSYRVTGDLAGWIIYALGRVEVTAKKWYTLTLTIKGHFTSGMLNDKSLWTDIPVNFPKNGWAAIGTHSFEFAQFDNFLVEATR
In short: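 Live 145M-Twi cells (Twitcher mouse brain-derived, GALC-null) stably expressing human GALC-G270D, with a wild-type GALC line, were compound-treated. Residual GALC activity was then read as fluorescence from 0.1 mM final HMU-β-gal at pH 5.2; higher signal means activation.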

activation, inactive:
COC(=O)c1ccccc1NC(=O)c1oc2ccc3c(c2c1C)C(=O)CC(C)(C)O3 -2.91%
COc1ccc(-c2nn(-c3ccc(F)cc3)c3c2cnc2ccc(F)cc23)cc1OC -14.7%
CCCc1nn2c(=O)cc(COC(=O)C3CCCCC3)nc2s1 -23.5%
Cc1ccc(NC(=O)CCCn2c(=O)c3cccn3c3ccccc32)cc1Cl -2.39%
COc1ccc(OCC(=O)Nc2ccc(Cl)c(-c3nc4ncccc4o3)c2)cc1 2.43%
O=C1CN(C(=O)COc2ccccc2)C(c2ccc(F)cc2)c2cc(Br)ccc2N1 (configuration not stated) -16.9%
COC(=O)c1cc2sc(Cl)cc2n1CC(=O)Nc1cc(OC)cc(OC)c1 -13%
CCN(CCCNC(=O)c1cc(Nc2ccc(OC)cc2)nc2ccccc12)c1cccc(C)c1 -0.149%
O=C(Nc1ccccc1F)c1nc(SCc2ccccc2F)ncc1Cl -12.1%
Cc1ccc(Cl)cc1NC(=O)Nc1cn(CC(C)C)c(=O)c2ccccc12 -9.12%
Cc1ccccc1CN1C(=O)c2ccccc2Sc2ccc(C(=O)NCc3ccccc3)cc21 -6.93%
COc1cccc(CNC(=O)c2ccc3c(c2)N(Cc2ccc(F)cc2Cl)C(=O)c2ccccc2S3)c1 -23.7%
CCOc1ccc(CCNC(=O)Cn2ccc3cc(S(=O)(=O)N4CCCCC4)ccc32)cc1 -15.1%
COCCn1c(SCC(=O)c2c(C)[nH]c3ccccc23)nc2cc(C(=O)NC(C)C)ccc2c1=O -11.9%
Cc1ccc2c(C)c(C(=O)NCC(c3ccc(Cl)cc3)N3CCOCC3)oc2c1 (configuration not stated) -9.88%
Cc1ccc(NC(=O)NC(C)c2c(-n3cccc3)sc(C)c2C)cc1F (configuration not stated) -9.46%
COc1cc(NC(=O)C2CCN(c3nnc(C)c4c(C)n(-c5ccccc5)nc34)CC2)cc(OC)c1 6.43%
Cc1ccc(-n2c(=O)[nH]c3cc(C(=O)NCCc4ccccc4)ccc3c2=O)cc1 0.801%
COc1ccc(-n2nc(C(=O)Nc3ccc(C)cn3)c3c4ccccc4n(C)c3c2=O)cc1Cl -9.66%
Cc1ccc(-c2nc(S(=O)(=O)c3ccc(C)cc3)c(SCC(=O)c3ccccc3)o2)cc1 -31.8%
NC1(c2ccc(-c3nc4ccn5c(=O)[nH]nc5c4cc3-c3ccccc3)cc2)CCC1 -2.75%
Cc1cccc(C)c1NC(=O)Cn1c(=O)n(Cc2ccccc2Cl)c(=O)c2cccnc21 -8.75%
CCN(C(=O)CSc1nc2ccccc2n1Cc1ccccc1C#N)c1ccccc1 -8.72%
CCOC(=O)c1ccc(NC(=O)CSc2nnc(-c3ccncc3)n2-c2ccccc2)cc1 -16.7%
CCOc1ccc(CNC(=O)c2cnc3c(C)cccn3c2=O)cc1 -15.4%
CCOC(=O)c1ccccc1NC(=O)c1cnn(-c2ccc(OC)cc2)c1C1CCN(C(=O)OC(C)(C)C)CC1 3.42%
Cc1ccc2c(c1)c(=O)c1ccccc1n2CCCC(=O)Nc1ccc(Cl)cc1C -9.59%
CCOC(=O)c1cnc(NCc2ccc(Cl)cc2)c2ccccc12 -11%
O=C(Cc1ccc(F)cc1)NCCc1csc(-c2ccc(C(F)(F)F)cc2)n1 -29.7%
Cc1ccc2[nH]c3c(=O)n(CC(=O)N(C)Cc4ccccc4)ncc3c2c1 -6.96%
Cn1c(CN2CCCCC2)nc2cc(NC(=O)c3ccc(Cl)cc3)ccc21 -8.61%
CCOc1ccc(CCNC(=O)c2nn(-c3ccc(OC)cc3)c(=O)c3c2c2ccccc2n3C)cc1OCC -3.76%
CCN(CC)C(=O)c1ccccc1NC(=O)c1cccc(S(=O)(=O)N2CCC(C)CC2)c1 -1.38%
O=C(NC1CCCCC1)/C(=C/c1ccc(Cl)cc1)NC(=O)c1ccccc1 -4.55%
Cc1ccc(CNC(=O)C2CCN(c3ncnc4c3nc3n4CCCCC3)CC2)cc1 -7.91%
Cc1ccc(NC(CNS(=O)(=O)c2ccc(Cl)cc2)c2ccccc2)cc1 (configuration not stated) -8.91%
CCC(=O)N1c2ccc(S(=O)(=O)N3CCN(c4ccccc4Cl)CC3)cc2CC1C (configuration not stated) -1.28%
CCOC(=O)C1CCCN(S(=O)(=O)c2cc(-c3cc(C)no3)ccc2C)C1 (configuration not stated) -5.47%
COc1cccc(CNC(=O)c2ccc(CS(=O)Cc3ccc(Cl)cc3)o2)c1 (configuration not stated) 5.36%
Cc1ccc(C(=O)CSc2nnc3ccc4ccccc4n23)cc1 -7.46%
N#Cc1cc2c(=O)n3ccccc3nc2n(-c2nnc(SCc3ccccc3)s2)c1=O -10.1%
O=C(CCCn1c(=O)c2cccn2c2cccnc21)Nc1ccccc1Br -7.33%
O=c1oc2ccc3ccccc3c2cc1-c1nnc(Nc2cccc(F)c2)s1 -8.59%
Cc1ccccc1CNC(=O)c1ccc2c(c1)N(Cc1ccccc1)CCS2 -13.8%
Cc1cccc(C)c1Nc1c(-c2ccccc2O)nc2ncccn12 -3.59%
CCCCCCCCCCCCCCCCCC(=O)O -7.18%
CCOC(=O)c1c(NC(=O)/C=C/c2ccc(OCC)cc2)sc2c1CCC2 -12.7%
CCCCn1c(=O)c2oc3ccccc3c2n(CC(=O)Nc2ccccc2OC)c1=O -0.878%
Cc1ccc(CNC(=O)Cn2cc(C(=O)c3ccc(Cl)cc3)c(=O)c3ccc(C)nc32)cc1 -17.7%
CCN1CCOC(=O)C1CC(=O)Nc1cc(Cl)ccc1OC (configuration not stated) -6.49%
O=C(CCn1c(=O)c2cccn2c2cccnc21)N1CCN(c2ccc(Cl)cc2)CC1 -12%
Cc1cccc(OCCCCn2c(C3CC(=O)N(c4ccc(C)cc4C)C3)nc3ccccc32)c1 (configuration not stated) -1.4%
Cc1ccc(Cl)cc1-n1ncc2c(N3CCC(C(N)=O)CC3)ncnc21 -0.722%
CNc1oc(/C=C/c2cc(OC)c(OC)c(OC)c2)nc1C#N -7.79%
CCCCNC(=O)[C@@H](c1ccccc1)N1Cc2ccccc2C1=O -8.6%
CCc1ccc(C2=C(C)C(N3CCC(C(=O)NCc4ccc(C)o4)CC3)=NS2(=O)=O)cc1 -2.99%
Cc1nn(CC(=O)NCc2ccccc2Br)c(=O)c2cc3occc3n12 2.12%
Cc1ccc(S(=O)(=O)N2CCCc3cc(NC(=O)c4c(F)cccc4F)ccc32)cc1 -10.8%
Cc1ccc(-n2c(=O)c3ccc(C(=O)NCc4ccccc4Cl)cc3n(CC(N)=O)c2=O)cc1 -26.8%
Cc1ccccc1C(=O)Nc1ccc(C(=O)OCc2cc(=O)n3c4c(sc3n2)CCCC4)cc1 -14.1%
Cc1cccc(CNC(=O)c2cnc3sc(N4CCOCC4)nn3c2=O)c1 -6.33%
Cc1ccc(C(=O)Nc2ccc(F)cc2)cc1S(=O)(=O)N1CCOCC1 -13.2%
O=C(OCC1CCCO1)c1ccc2c(c1)N(Cc1ccccc1F)C(=O)c1ccccc1S2(=O)=O (configuration not stated) 8.29%
CCOc1ccccc1NC(=O)CSc1nccn1Cc1ccc(F)cc1 -10.7%
CCNC(=O)CC1C(=O)N(c2ccc(F)cc2)C(=O)N1Cc1ccc(C)cc1 (configuration not stated) -13.2%
Cc1ccc(Cl)cc1N(C)C(=O)c1cc2ccc3cccnc3c2[nH]1 -9.59%
CC(=O)OC/C=C(C)/C=C/C=C(C)/C=C/C1=C(C)CCCC1(C)C -7.32%
CCCCOc1ccc(C(=O)NCCc2csc3nc(-c4ccccc4F)nn23)cc1 -10.4%
COc1ccccc1CNC(=O)C(Cc1ccccc1)NS(=O)(=O)c1ccc2c(c1)CCN2C(C)=O (configuration not stated) -8.77%
Cc1ccccc1NC(=O)c1ccc(CNS(=O)(=O)c2ccc3c(c2)C(C)(C)C(=O)N3C)cc1 2.72%
O=C(NCc1ccccn1)c1nn(-c2ccccc2Cl)nc1CO -10.7%
Cc1cc(NC(=O)CSc2ncc(C(=O)Nc3ccccc3)c(=O)n2C)no1 -5.41%
CCN(CC)C(=O)C1=C(C)Nc2nc3ccccc3n2C1c1ccc(Cl)cc1 (configuration not stated) -11.7%
CSc1ncc(C(=O)Nc2cccc(Cl)c2C)c(-c2ccccc2)n1 -7.13%
CSc1ccc(CCNC(=O)c2ccc3c(c2)c(C)c(C)n3Cc2ccc(F)cc2)cc1 -9.54%
CCn1c(CN2CCN(C)CC2)nc2cc(NC(=O)c3cc(OC)c(OC)c(OC)c3)ccc21 -14.9%
CCOc1ccccc1C(=O)NCC(c1ccc(N(C)C)cc1)N1CCCC1 (configuration not stated) -12.9%
COc1ccc(CCNC(=O)c2cc3c(=O)[nH]c4ccc(C)cc4c3s2)cc1OC -18.8%
CCN(CC)C(=O)C1CCCN(c2ncnc3c2nc2n3CCCCC2)C1 (configuration not stated) -22%
CC(=O)c1cccc(NC(=O)c2cc(-c3ccc4c(c3)OCCO4)on2)c1 -0.748%
CCOC(=O)CNC(=O)Cn1nc(N2CCN(c3ccccc3)CC2)ccc1=O -2.22%
COCCn1c(CNC(=O)c2cc(OC)c(OC)c(OC)c2)nc2cccnc21 8.61%
COC(=O)c1ccc(NC(=O)c2c(NCc3ccc(OC)c(OC)c3)sc3c2CCCC3)cc1 -12.5%
COC(=O)c1ccccc1NC(=O)CCCS(=O)(=O)c1nc(-c2ccccc2OC)cc(C(F)(F)F)n1 -10.8%
CCOc1ccccc1CNC(=O)CN1C(=O)C2CCCCN2c2ccc(C(=O)N(C)C)cc21 (configuration not stated) -22.8%
CCc1ccccc1NC(=O)c1ccc2[nH]c(C)c(C)c2c1 -3.64%
Cc1oc2ncnc(N3CCCCC3)c2c1C(=O)Nc1cccc(F)c1 9.59%
COc1ccc(-c2cc(-c3ccc(F)cc3)nc3c2COc2ccccc2-3)cc1 -7.39%
CCc1ccc(CNC(=O)c2sc3ncnc(N(C)C4CCCCC4)c3c2C)cc1 -1.39%
COc1ccc(CCCc2nnc(SCC(=O)Nc3ccc(Cl)cc3)o2)cc1 -16.3%
CCOc1ccc(OCC)c(NC(=O)c2c(C)nn(-c3ccccc3)c2-n2cccc2)c1 -3.22%
Cc1nn(C)c2c1c(C(F)(F)F)cc(=O)n2CC(=O)NC(C)(C)C -11.1%
Cc1ccccc1CN1C(=O)C(O)(CC(=O)c2cccc(Br)c2)c2ccccc21 (configuration not stated) -20.3%
COc1ccc(Nc2cc(C(=O)NCCCN(C)C3CCCCC3)c3ccccc3n2)cc1 -15.4%
Cc1c(C(=O)NCc2ccccc2)oc2c1-c1[nH]ncc1CC2 -9.99%
CCOc1ccccc1C1Nc2ccccc2-c2nnc(SCc3ccccc3)nc2O1 (configuration not stated) -8.18%
COc1ccc(Br)cc1CNC(=O)c1ccc(-n2c(C)cc3c2CCC(C)C3)cc1 (configuration not stated) -28.5%

— PubChem BioAssay AID1159614 (National Center for Advancing Translational Sciences (NCATS), 2016)
